Data as given in the BET-seq Pho4 binding data (Le et al. 2018).
The list shows a part of the results. The energies were worked out here from pooled read counts, against the library average; single values are noisy.

Target: T1, Pho4 (S. cerevisiae) (UniProt P07270)
T1 sequence: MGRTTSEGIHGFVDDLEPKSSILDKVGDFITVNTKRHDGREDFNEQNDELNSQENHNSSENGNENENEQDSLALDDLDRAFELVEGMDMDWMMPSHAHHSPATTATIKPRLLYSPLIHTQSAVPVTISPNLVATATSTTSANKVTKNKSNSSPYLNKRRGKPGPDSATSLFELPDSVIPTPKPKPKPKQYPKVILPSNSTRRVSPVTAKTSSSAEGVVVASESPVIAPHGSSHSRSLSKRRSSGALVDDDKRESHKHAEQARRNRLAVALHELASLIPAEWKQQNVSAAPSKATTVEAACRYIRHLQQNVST
Assay: relative binding free energy (BET-seq); higher = weaker binding
Settings: reference: library average

Row | Sequence | relative binding free energy [kcal/mol]
1 | GTGATCACGTGAGAGG | 0.34
2 | GTTATCACGTGACGTG | 0.26
3 | TCGTGCACGTGGTAGA | -0.15
4 | GGTCGCACGTGTTTAA | 0.06
5 | TCGTGCACGTGAATTT | 0.33
6 | TGCGTCACGTGTAAGT | 0.13
7 | AGGGACACGTGACAGG | 0.19
8 | GGAGTCACGTGGCTGT | 0.2
9 | TTTGACACGTGAAGTT | 0.26
10 | GGGTACACGTGGCTTA | 0.01
11 | TTGTTCACGTGAATAA | 0.39
12 | TATATCACGTGGCATG | 0.06
13 | GTGGCCACGTGTTAAG | 0
14 | TGTCTCACGTGAAATG | 0.42
15 | CGATACACGTGGATGG | 0.01
16 | CATTACACGTGGTTTG | 0.12
17 | GTATTCACGTGCAGAG | 0.33
18 | TGGTTCACGTGATGAC | 0.38
19 | TGTATCACGTGAGCGT | 0.24
20 | TATGGCACGTGAGATG | 0.06
21 | TGTGACACGTGTGTTG | -0.05
22 | TTTTGCACGTGAATCG | 0.06
23 | ATTGTCACGTGTAAGT | 0.26
24 | ATATTCACGTGTCTTG | 0.27
25 | TAGTTCACGTGGTTGT | 0.23

Row | Sequence | relative binding free energy [kcal/mol]
26 | ATTTCCACGTGTAAGT | 0.24
27 | ACTTGCACGTGGTTTA | -0.09
28 | GTGTACACGTGGCGGA | -0.03
29 | GGGGGCACGTGTTAAC | -0.03
30 | GCATGCACGTGGTGTA | -0.2
31 | TCTGTCACGTGCTTTG | 0
32 | ATAATCACGTGTGGGG | 0.18
33 | CATTTCACGTGTTGGC | 0.41
34 | TATTACACGTGCTTTG | -0.01
35 | GTATGCACGTGTGCAT | -0.09
36 | TGTGGCACGTGTAGTC | 0.09
37 | AGGTACACGTGAGTTT | 0.4
38 | AGGGCCACGTGTAGGA | 0.01
39 | TCGTTCACGTGTTAAG | 0.33
40 | CGTAACACGTGTGGGC | 0.11
41 | TATTTCACGTGATGAA | 0.34
42 | TGCTTCACGTGCGTTG | 0.21
43 | GTGGTCACGTGGCGTC | 0.08
44 | TTTCTCACGTGTAATT | 0.4
45 | TTTACCACGTGTAGTG | 0.03
46 | TAATGCACGTGTCTTT | -0.02
47 | TGCTGCACGTGGGGAA | -0.25
48 | CTTTTCACGTGCGATG | 0.31
49 | ATCGCCACGTGGGGGT | -0.28
50 | GTGTGCACGTGCGATG | -0.06

Row | Sequence | relative binding free energy [kcal/mol]
51 | AAAGACACGTGTTTTT | 0.14
52 | GTAGACACGTGGTGCG | -0.05
53 | GTAGCCACGTGGTGGT | -0.09
54 | GATGCCACGTGTGGTT | 0.1
55 | ATTATCACGTGGGGGT | -0.02
56 | ATATTCACGTGCGGAG | 0.19
57 | GTGGTCACGTGGGCGA | 0.02
58 | GCAATCACGTGGGTGT | 0.07
59 | AGGGCCACGTGATAGG | 0.15
60 | GTGGACACGTGGGTCG | -0.01
61 | TTGGTCACGTGAGACA | 0.29
62 | GTGGACACGTGGTTTC | 0.03
63 | GTGGTCACGTGTGTAA | 0.13
64 | GGGTTCACGTGAAGCG | 0.5
65 | TAACTCACGTGTATGT | 0.21
66 | GAGGGCACGTGAGCTG | 0.06
67 | TGGGCCACGTGGATGA | -0.02
68 | AATTGCACGTGTTGGA | -0.01
69 | GGTTTCACGTGCGTCT | 0.31
70 | AGTAGCACGTGGGGGT | -0.23
71 | TGGTGCACGTGGCGTC | -0.1
72 | TAAATCACGTGTAATG | 0.04
73 | ATTTTCACGTGTGCGG | 0.35
74 | CTTTGCACGTGGTAGG | -0.14
75 | GTGTGCACGTGTGCTA | -0.13

Row | Sequence | relative binding free energy [kcal/mol]
76 | AATTTCACGTGTAGAT | 0.49
77 | TTTAACACGTGGTTAC | 0.07
78 | CAAAACACGTGGGTGG | -0.11
79 | GGGGACACGTGTTGTG | 0.08
80 | TTTGTCACGTGTTGGT | 0.17
81 | TAGTTCACGTGTGGCA | 0.28
82 | AGGGACACGTGGCGCT | -0.09
83 | TAGGGCACGTGTGGGG | -0.02
84 | GGTATCACGTGTCAGT | 0.21
85 | TGCCGCACGTGGGGTG | -0.33
86 | TTGTGCACGTGTAGCT | -0.08
87 | TAATTCACGTGTGATA | 0.3
88 | CTGTTCACGTGCTGGG | 0.17
89 | TTGGACACGTGCTTGT | -0.01
90 | ATTTGCACGTGTCGAA | 0.02
91 | GAGTACACGTGTTATG | 0.06
92 | ATTGGCACGTGGAGAG | -0.19
93 | CGTGGCACGTGGCAGT | -0.18
94 | ACGGACACGTGAGTTT | 0.31
95 | TCGTTCACGTGTCGTG | 0.22
96 | ATTTTCACGTGTGTGG | 0.3
97 | GTTGGCACGTGAAAAT | 0.16
98 | TTATACACGTGGCGTC | 0.09
99 | TTGCGCACGTGGCGTT | -0.32
100 | CAAGACACGTGGGGGA | -0.11

Row | Sequence | relative binding free energy [kcal/mol]
101 | TGACTCACGTGGTGTT | 0.14
102 | TTAAGCACGTGGATTG | -0.01
103 | ATACACACGTGGGTGT | -0.15
104 | AGGTGCACGTGCAAAT | 0.19
105 | GGGGGCACGTGGTTTA | -0.03
106 | GGGTGCACGTGGGGTC | -0.1
107 | AGGGGCACGTGAGTGA | 0.17
108 | TAGGGCACGTGGGGCT | -0.31
109 | GGAGACACGTGCTGGT | -0.13
110 | GAGGACACGTGTGTTA | 0.15
111 | GGGAGCACGTGGCCGT | 0.03
112 | GGTGTCACGTGCGCGA | 0.11
113 | ACTTTCACGTGGGTCT | 0.2
114 | GTTAGCACGTGTTTCT | -0.04
115 | TTAGTCACGTGAAGGC | 0.31
116 | ATGGCCACGTGAGGAG | 0.1
117 | ATTCACACGTGGGGAT | -0.01
118 | CAGGGCACGTGAGGGA | 0.02
119 | TTGAACACGTGTGTGG | 0
120 | AGTGACACGTGGGTAC | -0.22
121 | CATGTCACGTGTGTCT | 0.31
122 | CGGTGCACGTGAAGCG | 0.25
123 | TGTATCACGTGTCGGC | 0.23
124 | TTAGACACGTGCAGTG | -0.09
125 | TTGGGCACGTGCGCGG | -0.25

Row | Sequence | relative binding free energy [kcal/mol]
126 | TCGGACACGTGAGGTA | 0.28
127 | TGTTACACGTGATAGA | 0.28
128 | GGCAGCACGTGTAGTA | 0.03
129 | TTGTGCACGTGGCGAC | -0.02
130 | GGTGCCACGTGGTTAA | -0.07
131 | CTTGGCACGTGGTTAA | -0.09
132 | GTATTCACGTGTCAAG | 0.28
133 | CGTGTCACGTGAGCGG | 0.25
134 | TTAGACACGTGATAAT | 0.19
135 | GAAGACACGTGCGGGT | 0
136 | AAGTCCACGTGGGTGT | -0.18
137 | ATGGTCACGTGTTATG | 0.06
138 | GGCTTCACGTGAGTGT | 0.35
139 | AGTGACACGTGTGGGG | 0.02
140 | TTTGACACGTGTGGCT | 0.1
141 | GGGTTCACGTGTGCGA | 0.36
142 | GATTACACGTGTGAGG | 0.22
143 | TTCGGCACGTGAGGGT | 0.04
144 | TGGTTCACGTGAAATT | 0.38
145 | ATATTCACGTGCGATG | 0.15
146 | GTTGTCACGTGGGAAA | 0.27
